# Results reported in PubChem BioAssay AID485281 (National Center for Advancing Translational Sciences (NCATS), 2010).
# Out of some 350,000 compounds screened, about 260 (0.074%) were called active. Inconclusive results, whose numbers are uncertain, are shown with a selection of clear calls. Calls come from the whole dose curve; as a rule, active = well fitted inhibition curve with a large enough effect; inconclusive = small, poorly fitted or top-dose-only effect; inactive = no such curve, though single readings can be large or run the other way. Potencies of inconclusive entries are doubtful fits and often do not repeat.
# Molecular target: Ferritin light chain (Equus caballus) (UniProt P02791)
# UniProt P02791, sequence (P02791 whole entry, looked up): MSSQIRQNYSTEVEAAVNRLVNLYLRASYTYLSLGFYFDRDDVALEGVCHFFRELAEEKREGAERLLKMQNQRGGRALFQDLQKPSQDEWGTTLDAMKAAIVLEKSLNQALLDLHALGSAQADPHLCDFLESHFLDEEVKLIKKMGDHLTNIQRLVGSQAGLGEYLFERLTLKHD
# Assay: qHTS Assay for Identification of Novel General Anesthetics; note: nearly all actives have a fitted effect of over 20% in size
# Conditions: apoferritin/1-aminoanthracene competitive binding, fluorescence; series mostly up to 77.5 µM
# Summary of the method: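 In PBS, apoferritin at 10 uM is loaded with 1-AMA from a 50% saturated solution. After 10 min of compound exposure at ambient temperature, reduced 535 nm fluorescence indicates probe displacement.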
# Potency is the fitted concentration of half-maximal effect; tags give direction and shape of the fitted curve.
row,SMILES,Potency
1,Fc1ccccc1CSc1nc2ccccc2[nH]1,"inconclusive: 11.2 µM [inhibitor, partial curve]"
2,COc1cc(C(=O)N2CCN(c3cccc(C)c3C)CC2)cc(OC)c1OC,inactive
3,CCc1ccccc1NC(=O)CCCn1c(=O)c2cccn2c2ccccc21,"inconclusive: 1.12 µM [inhibitor, full curve]"
4,N#CCO/N=C/C(=O)Nc1ccc(F)cc1F,inactive
5,O=C1CC(Nc2ccc(N3CCOCC3)cc2)C(=O)N1c1cccc(C(F)(F)F)c1 (stereo not drawn),"inconclusive: 44.7 µM [inhibitor, single point]"
6,O=[N+]([O-])c1ccc(NCCNCCOc2nonc2-c2ccccc2)c([N+](=O)[O-])c1,"inconclusive: 31.6 µM [inhibitor, partial curve]"
7,COc1ccc(/C(O)=C/C(=O)C(=O)Nc2c(C)n(C)n(-c3ccccc3)c2=O)cc1,inactive
8,CC1CCCC(C)N1C(=O)COC(=O)c1ccc2c(c1)OCO2 (stereo not drawn),"inconclusive: 25.1 µM [inhibitor, partial curve]"
9,Cc1cc(C)c(C#N)c(Nc2ccccc2C)n1,inactive
10,O=S(=O)(N/N=C/c1ccccc1OCc1ccc(Cl)cc1)c1ccccc1,"inconclusive: 50.1 µM [inhibitor, single point]"
11,CCN(CC)CCNCc1ccc(-c2ccc(Cl)cc2)o1,"inconclusive: 25.1 µM [inhibitor, partial curve]"
12,CC(C)C(OC(=O)CN1C(=O)c2ccccc2C1=O)C(=O)NC1CCCC1 (stereo not drawn),inactive
13,Fc1cccc(C[n+]2csc3ccccc32)c1,"inconclusive: 31.6 µM [inhibitor, single point]"
14,CSc1nsc(/C=C/Nc2ccc(O)cc2C)c1C#N,inactive
15,CCCc1nn2c(=O)cc(COC(=O)c3ccc(NC(=O)COc4ccccc4F)cc3)nc2s1,inactive
16,CCOc1ccc(CCNCc2c(C(=O)O)c(C)n(Cc3ccccc3F)c2C)cc1,inactive
17,Cc1ccccc1Nc1nc(CSc2nnc(-c3ccoc3C)n2C)cs1,"inconclusive: 35.5 µM [inhibitor, partial curve]"
18,OCCCCCN=c1cc(-c2ccccc2)oc2ccc(Cl)cc12,"inconclusive: 35.5 µM [inhibitor, partial curve]"
19,O=S(=O)(c1ccc(NC2CCCCC2)cc1)N1CCOCC1,"inconclusive: 25.1 µM [inhibitor, partial curve]"
20,Cc1ccccc1Nc1c(-c2c[nH]c3ccccc23)nc2cccc(C)n12,"inconclusive: 5.01 µM [inhibitor, full curve, poor fit]"
21,COc1ccc(-n2c(=S)[nH]c3cc(C(=O)NCc4ccc(F)cc4)ccc3c2=O)c(OC)c1,"inconclusive: 17.8 µM [inhibitor, partial curve]"
22,Cc1ccccc1NC(=O)CCC(=O)N/N=C/c1ccc(F)cc1,"inconclusive: 20 µM [inhibitor, partial curve]"
23,Fc1ccc(-c2cc3nc(-c4ccccc4)cc(N4CCN(CCN5CCOCC5)CC4)n3n2)cc1,inactive

row,SMILES,Potency
1,Cn1c(SCC(=O)N/N=C/C=C\c2ccco2)nc2ccccc21,"inconclusive: 25.1 µM [inhibitor, partial curve]"
2,O=C(NCc1ccccc1)c1cccc(OCC(=O)N2CCN(C(=O)c3ccco3)CC2)c1,inactive
3,CN(C)c1cccc(OC2C=CC(C#Cc3ccccc3)OC2CO)c1 (stereo not drawn),"inconclusive: 5.62 µM [inhibitor, single point]"
4,CCOC(=O)Cn1c(-c2cccnc2Cl)nc2cc(C)c(C)cc21,inactive
5,Cc1c(C(=O)O)cccc1-c1ccc(/C=N/Nc2ccc(Br)cc2)o1,inactive
6,Cc1cc(OCC(=O)Nc2ccc(CN3CCOCC3)cc2)c2c(C)cc(=O)oc2c1,"inconclusive: 31.6 µM [inhibitor, partial curve]"
7,O=C1CC(c2ccco2)Sc2nc3ccccc3n21 (stereo not drawn),"inconclusive: 28.2 µM [inhibitor, single point]"
8,O=C(CCN1CCOCC1)Nc1cccc(Br)c1,inactive
9,CCn1c(SCC(=O)Nc2nc(C)cs2)nnc1-c1ccoc1C,"inconclusive: 28.2 µM [inhibitor, partial curve]"
10,O=C(CSCC(=O)OCn1nnc2ccccc2c1=O)Nc1ccc(Cl)cc1,"inconclusive: 25.1 µM [inhibitor, partial curve]"
11,C/C(=N\NC(=O)Cc1ccc(Cl)cc1)c1cccnc1,"inconclusive: 20 µM [inhibitor, partial curve]"
12,Cc1cccc(NC(=O)NNC(=O)c2cc(-c3ccccc3Cl)nc3ccccc23)c1,"inconclusive: 11.2 µM [inhibitor, partial curve]"
13,O=C(c1nnc(-c2ccncc2)o1)c1ccccc1Cl,"inconclusive: 44.7 µM [inhibitor, single point]"
14,CC[C@H](C)C(=O)O[C@H]1CCC=C2C=C[C@H](C)[C@H](CC[C@@H]3C[C@@H](O)CC(=O)O3)[C@H]21,"inconclusive: 35.5 µM [inhibitor, single point]"
15,O=C(Nc1cc(C(F)(F)F)ccc1F)C1CCCCC1,"inconclusive: 25.1 µM [inhibitor, partial curve]"
16,COCCn1c(C)cc(C2=NNC(=NC(C)(C)C)SC2)c1C,"inconclusive: 31.6 µM [inhibitor, partial curve]"
17,CC1=C(C(=O)OC(C)C)C(c2coc3ccccc3c2=O)C2=C(CCCC2=O)N1 (stereo not drawn),inactive
18,Cc1ccc(C(C)C)c(OCc2nn(CC(=O)c3ccc(Cl)cc3)c3[n+]2CCCCC3)c1,inactive
19,O=C(CC12CC3CC(CC(C3)C1)C2)Nc1ccc2c(c1)COC2=O,"inconclusive: 6.31 µM [inhibitor, full curve, poor fit]"
20,O=C(CN(C(=O)CNS(=O)(=O)c1ccccc1)c1ccc2c(c1)OCCO2)NC1CCCCC1,"inconclusive: 39.8 µM [inhibitor, partial curve]"
21,Cc1ccccc1NC(=O)CCn1nc(-c2ccc(Cl)cc2)c2ccccc2c1=O,"inconclusive: 56.2 µM [inhibitor, single point]"
22,CCCCCCc1nc(C(N)=O)c2[nH]c(=O)n(-c3ccc(OC)cc3OC)c2n1,"inconclusive: 50.1 µM [inhibitor, single point]"
23,O=C(O)CN1C(=O)/C(=C/c2ccsc2)SC1=S,"inconclusive: 31.6 µM [inhibitor, single point]"

row,SMILES,Potency
1,Cc1cc(C)nc(NC(=O)/C=C/c2ccc(Cl)cc2Cl)c1,"inconclusive: 10 µM [inhibitor, partial curve]"
2,Cc1cc(=O)oc2cc(OCC3CC(c4ccc(Cl)cc4)=NO3)ccc12 (stereo not drawn),"inconclusive: 3.98 µM [inhibitor, partial curve]"
3,COc1cc(/C=C(\C#N)c2nc3c(s2)CC(C)CC3)ccc1O (stereo not drawn),"inconclusive: 50.1 µM [inhibitor, partial curve]"
4,CCOC(=O)c1c(-n2c(C)cc(C=O)c2C)sc2c1CCCC2,"inconclusive: 35.5 µM [inhibitor, partial curve]"
5,Cc1ncsc1CCOC(=O)c1cccc([N+](=O)[O-])c1,"inconclusive: 28.2 µM [inhibitor, partial curve]"
6,CCOc1cc2c3c(c1)C1(Nc4ccccc4S1)C(=O)N3C(C)(C)CC2C (stereo not drawn),"inconclusive: 12.6 µM [inhibitor, full curve, poor fit]"
7,CSc1c(C#N)sc(=S)n1-c1ccc(C)cc1,"inconclusive: 28.2 µM [inhibitor, partial curve]"
8,O=C(CN1C(=O)c2cccc([N+](=O)[O-])c2C1=O)NCc1ccccc1,inactive
9,CN(C(=O)CSc1nc2ccc(NC(=O)c3cccs3)cc2s1)c1ccccc1,inactive
10,O=C(c1ccc(-c2cccc(C(F)(F)F)c2)o1)N1CCOCC1,inactive
11,CCN(CCCNC(=O)COc1cc(=O)n(C)c2ccccc12)c1ccccc1,"inconclusive: 28.2 µM [inhibitor, partial curve]"
12,CC1Cc2ccccc2N1C(=O)CSC1=NCCS1 (stereo not drawn),"inconclusive: 12.6 µM [inhibitor, partial curve]"
13,O=S(=O)(N/N=C/c1ccc(Cl)cc1)c1ccc(Cc2ncc(C(F)(F)F)cc2Cl)s1,"inconclusive: 35.5 µM [inhibitor, partial curve]"
14,CS/C(=C\[N+](=O)[O-])Nc1ccc(Cl)cc1,"inconclusive: 39.8 µM [inhibitor, partial curve, poor fit]"
15,CCCn1c(-c2ccc(OC)cc2)nc2ccccc21,"inconclusive: 25.1 µM [inhibitor, partial curve]"
16,Clc1cccc(Cl)c1C1=NOC(c2nnc(-c3ccccc3)o2)C1 (stereo not drawn),"inconclusive: 11.2 µM [inhibitor, partial curve]"
17,Cc1ccc(C(=O)Nc2cccc(C(F)(F)F)c2)cc1NC(=O)c1csc(-c2ccncc2)n1,"inconclusive: 56.2 µM [inhibitor, partial curve]"
18,COC(=O)c1ccc(/C=N/NC(=O)CC(=O)NCc2cccnc2)cc1,"inconclusive: 50.1 µM [inhibitor, single point]"
19,Cc1cc(C(=O)OCC(=O)N2C(C)CCCC2C)c(C)o1 (stereo not drawn),"inconclusive: 4.47 µM [inhibitor, full curve]"
20,c1cncc(CSc2ccc(-c3cccs3)nn2)c1,"inconclusive: 28.2 µM [inhibitor, single point]"
21,Cc1nc(N2CCCCC2C)c2c(C)c(C(=O)Nc3ccccc3C(F)(F)F)sc2n1 (stereo not drawn),inactive
22,CCCC(=O)N1CCN(c2ccc(NC(=O)c3ccc([N+](=O)[O-])o3)cc2Cl)CC1,"inconclusive: 28.2 µM [inhibitor, partial curve]"
